Data reported in PubChem BioAssay AID1159614 (National Center for Advancing Translational Sciences (NCATS), 2016).
Screen size: about 45,000 compounds; about 65 (0.1%) were called active. The call rests on the fitted dose curve; in most records, active means well fitted activation curve with a large enough effect; inconclusive means small, poorly fitted or top-dose-only effect; inactive means no such curve, though single readings can be large or run the other way. The list shows a part of the results.

target: Galactocerebrosidase (Homo sapiens) (UniProt P54803); assay: A Novel Cell-Based Assay to Identify Small Molecules for B -Galactocerebrosidase; settings: 145M-Twi-hGALC-G270D cells (Twitcher mouse brain line with human GALC G270D), HMU-beta-Gal fluorescence, 48 h; series mostly up to 57.5 µM; activation: at the top concentration; further: 0% is about no effect; nearly all actives have a fitted effect of over 65% in size
Sequence of UniProt P54803 (P54803 whole entry, looked up): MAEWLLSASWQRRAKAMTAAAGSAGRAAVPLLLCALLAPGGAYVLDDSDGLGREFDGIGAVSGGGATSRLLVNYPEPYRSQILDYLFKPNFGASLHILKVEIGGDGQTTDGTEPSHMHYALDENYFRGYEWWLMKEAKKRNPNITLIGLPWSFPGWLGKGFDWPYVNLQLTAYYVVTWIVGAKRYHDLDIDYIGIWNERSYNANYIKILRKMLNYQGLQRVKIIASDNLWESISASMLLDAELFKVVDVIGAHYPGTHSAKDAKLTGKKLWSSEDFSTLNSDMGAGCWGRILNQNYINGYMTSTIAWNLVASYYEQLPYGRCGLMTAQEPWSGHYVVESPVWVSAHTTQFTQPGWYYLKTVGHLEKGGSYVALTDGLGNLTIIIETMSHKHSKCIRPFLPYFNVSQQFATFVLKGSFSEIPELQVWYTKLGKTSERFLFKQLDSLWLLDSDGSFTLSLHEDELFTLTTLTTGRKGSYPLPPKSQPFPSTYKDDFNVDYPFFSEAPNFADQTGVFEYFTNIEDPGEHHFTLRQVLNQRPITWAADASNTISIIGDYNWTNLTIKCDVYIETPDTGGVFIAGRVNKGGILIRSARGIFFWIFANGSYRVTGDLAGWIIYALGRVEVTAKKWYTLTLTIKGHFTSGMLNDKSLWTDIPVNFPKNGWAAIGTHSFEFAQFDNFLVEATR
How it was run: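 Brain-derived Twitcher mouse 145M-Twi cells stably expressing human GALC-G270D or wild-type GALC, treated live, then residual GALC activity read by fluorescence of HMU-b-Gal substrate (0.1 mM final) in citrate-phosphate buffer pH 5.2 with sodium taurocholate. Signal increase indicates enhancement.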

activation, inactive:
Cc1ccccc1CS(=O)(=O)c1ncc(Cl)c(C(=O)Nc2nnc(C(C)C)s2)n1 -23.9%
Cc1oc(-c2cccc(Br)c2)nc1CSc1nc2ncccc2[nH]1 -10.7%
O=C(O)CCCCC1CCSS1 (centres undefined) -10.8%
CCCOc1ccc(C(=O)Nc2sc3c(c2C(=O)OCC)CCCCC3)cc1 -7.87%
O=C1CC(c2ccc(F)cc2)c2c(n3c(nc4ccccc43)[nH]c2=O)N1 (centres undefined) -14.2%
COCC(=O)O[C@]1(CCN(C)CCCc2nc3ccccc3[nH]2)CCc2cc(F)ccc2[C@@H]1C(C)C -18.1%
CCc1ccc(CNC(=O)C2CCN(C(=O)c3ccc(-n4ccc5ccccc54)s3)CC2)cc1 -14.2%
Cc1cccc(OCCSc2nc3ccccc3n2CC(=O)N2CCOCC2)c1C -16.7%
CCOc1ccc(S(=O)(=O)Nc2ccc(OC)c(Cl)c2)c2cccnc12 -11.1%
CCOC(=O)N1CCN(Cc2nc3cc(NC(=O)c4ccc([N+](=O)[O-])cc4)ccc3n2C(C)C)CC1 2.15%
CCN1C(=O)c2ccccc2S(=O)c2ccc(C(=O)NCc3ccccc3OC)cc21 (centres undefined) -8.72%
Cc1ccc(NC(=O)C2CCCN(S(=O)(=O)c3c(C)nn(C)c3C)C2)c(C)c1 (centres undefined) -11.4%
CCOc1ccc(C2C(C(N)=O)=C(C)Nc3nc(-c4cccc(Cl)c4)nn32)cc1OC (centres undefined) -13.8%
CSc1ccc(NC(=O)Cn2nnnc2-c2ccccc2F)cc1 -8.63%
COc1cc(/C=C/c2nc3cc(Cl)ccc3c(=O)n2-c2ccc(C)cc2C)cc(OC)c1OC -15.4%
COc1ccc(S(=O)(=O)NCC(c2ccco2)N2CCN(c3ccccc3F)CC2)cc1C (centres undefined) -14.3%
O=C(O)c1c2c(nc3ccc(S(=O)(=O)N4CCC(C(=O)NCc5ccc(Cl)cc5)CC4)cc13)CCCC2 -9.3%
COc1cccc(CNC(=O)Cn2c(SCC(=O)Nc3ccc(C)c(C)c3)nc3ccccc32)c1 -6.89%
CCCCCOc1ccc(NC(=O)Cn2c(-c3cncs3)nc3ccccc32)cc1 -8.57%
Cc1cc(Nc2cccc(C(F)(F)F)c2)nc2ccc(NC(=O)c3cccnc3)cc12 -6.92%
CCOC(=O)c1c(C)oc2nc(C)nc(N3CCN(c4cccc(C)c4C)CC3)c12 -14.2%
CC(NC(=O)c1cc(-c2ccc(Cl)cc2)on1)c1ccccc1 (centres undefined) -4.75%
COc1nnc(-c2ccc(N3CCCCC3)c(NC(=O)c3ccccc3)c2)c2ccccc12 -10.7%
O=C(NCC(c1cccnc1)N1CCc2ccccc21)C(=O)Nc1ccccc1F (centres undefined) -7.5%
COc1ccc(Nc2ncnc3c2nc2n3CCCC2)cc1Cl -13.8%
CCc1cccc(NC(=O)c2cccc3c2C(=O)N(C2CCCCC2)C3)c1 -13.5%
CCOC(=O)c1nnn(CC(=O)NC(=O)Nc2ccc(F)cc2)c1C(=O)OCC -22.3%
COc1ccc(CNC(=O)c2ccc3c(c2)N(Cc2ccccc2)CCS3)cc1 -10.8%
Cc1oc2ncn(CC(C)C)c(=O)c2c1C(=O)N(Cc1ccccc1)C(C)C -4.92%
Cc1nc2nc(C(F)(F)F)[nH]n2c(=O)c1Cc1ccccc1 -13%
CC(C)Oc1ccc(C(=O)Nc2nc3c(s2)CC(C(C)(C)C)CC3)cc1 (centres undefined) -30.3%
CC1Cn2cc(C(=O)Nc3ccccc3C(F)(F)F)c(=O)c3c(Cl)ccc(c32)O1 (centres undefined) -20.1%
O=C(NCC(c1ccc2c(c1)OCO2)N1CCN(c2ccccc2)CC1)c1ccccc1 (centres undefined) -11.9%
c1ccc(CNCCNCc2ccccc2)cc1 -8.86%
COc1ccc(Cl)cc1NS(=O)(=O)c1c(C)[nH]c(=O)[nH]c1=O -8.82%
CCOc1ccccc1NC(=O)c1c(NC(=O)c2ccncc2)sc2c1CCC(C(C)(C)C)C2 (centres undefined) -16.8%
Cc1ccc(O)c(NC(=O)CCSc2nc(-c3ccco3)cc(C(F)(F)F)n2)c1 -6.17%
O=C(CN1C(=O)C2(SCC(=O)N2c2ccc(Cl)cc2)c2ccccc21)NCCc1ccccc1 (centres undefined) -22.5%
C#C[C@]1(OC(C)=O)CC[C@H]2[C@@H]3CCC4=C/C(=N/O)CC[C@@H]4[C@H]3CC[C@@]21CC -35%
O=C(/C=C/c1ccccc1)N1CCN(Cc2cc(=O)n3nc(-c4ccccc4Cl)sc3n2)CC1 -9.04%
COc1cc(OC)c(NC(=O)c2cn(C)c(=O)c3cc(OC)c(OC)cc23)cc1Cl -11.7%
Cc1ccc(Cn2c(C)c3cnn(CC(=O)N4CCN(c5ccc(F)cc5)CC4)c(=O)c3c2C)cc1 -5.25%
CSCCC(NS(=O)(=O)c1ccc2c(c1)oc(=O)n2C)C(=O)Nc1ccc(Cl)cc1 (centres undefined) -13.3%
CC(C)c1ccc(CNc2nc(-c3ccco3)nn2C(=O)c2ccc([N+](=O)[O-])cc2)cc1 -7.11%
COc1ccc(OCC(=O)N(Cc2cccs2)c2ccc(OC)cc2)cc1 -7.89%
COCc1cc(C)nc2sc3c(c12)NC(c1ccc(O)c(OC)c1)N(c1ccccc1)C3=O (centres undefined) -0.812%
O=C(NC1(C(F)(F)F)C(=O)Nc2c1c(=O)[nH]c(=O)n2-c1ccccc1)c1ccccc1Cl (centres undefined) -17.1%
COc1cc(OC)cc(-c2cc3nc(C)c(CCC(=O)Nc4ccc(C(C)=O)cc4)c(C)n3n2)c1 -7.62%
C=Cc1ccc(Cn2c(=O)cc(C)c3c(C)nn(-c4ccccc4)c32)cc1 8.27%
COc1ccc(-c2noc(N3CCC(C(=O)N4CCN(c5ccccc5F)CC4)CC3)n2)cc1 2.67%
CCOCCCNc1nc2ccccc2n2c(CC)nnc12 -14.7%
COc1cc2c(C(=O)N3CCN(c4cccc(C(F)(F)F)c4)CC3)cn(CC(C)C)c(=O)c2cc1OC -7.65%
CCn1c(C)c(C)c2cc(C(=O)NCc3ccc(OC(C)C)cc3)ccc21 -2.75%
COc1ccc(NC(=O)Cn2c(=O)n(Cc3ccc4c(c3)OCO4)c(=O)c3ccc(C(=O)NC4CCCCC4)cc32)cc1 -17.7%
Cc1nn2c(=O)cc(COC(=O)c3ccc(NC(=O)c4cccc(Br)c4)cc3)nc2s1 -2.5%
COc1ccccc1NC(=O)CSc1nc(-c2ccc(C)cc2)nc2c1Cc1c(CO)cnc(C)c1O2 -9.38%
COc1ccc(-c2cn3nc(N4CCCC(C(=O)Nc5ccccc5OC)C4)sc3n2)cc1 (centres undefined) -9.55%
c1ccc2occc2c1 -25.1% [at 114 µM]
Cc1cccc(NC(=O)CCN2CCN(c3ccccc3F)CC2)c1 -14.1%
CCOC(=O)c1c(S(=O)(=O)NCC(=O)N2CCN(c3cc(C)ccc3C)CC2)c(C)n(C)c1C 2.44%
COC(=O)c1ccccc1NC(=O)Cn1c(=O)n(CCC(=O)NCc2ccccc2OC)c(=O)c2ccccc21 -26.9%
Cc1ccc(Cl)cc1NC(=O)CN1C(=O)CSc2ccc(S(=O)(=O)N3CCCC3)cc21 -12.4%
Cc1cn([C@@H]2O[C@H](CO)[C@@H](O)[C@H]2F)c(=O)[nH]c1=O -10.9%
O=C(CSc1nccn1C1CCCC1)Nc1cccc(F)c1 -44.8%
CSCC[C@@H](C(=O)Nc1cccc(F)c1)N1Cc2ccccc2C1=O -9.24%
CCOC(=O)C1CCN(c2c(C(=O)c3ccc(OC)cc3)cnc3ccccc23)CC1 -6.25%
COc1ccc(CCNC(=O)c2nc(SCc3ccccc3F)ncc2Cl)cc1OC -25.4%
CCOCCc1nn2c(=O)cc(COC(=O)Cc3ccccc3)nc2s1 -8.48%
CCc1ccc(-c2nc(SCC(=O)NCC3CCCO3)c(-c3ccc(C)cc3)[nH]2)cc1 (centres undefined) -16.1%
Cc1cccc(C)c1NC(=O)Cn1c(=O)n(CCCS(=O)(=O)C2CCCCC2)c(=O)c2ccccc21 3.08%
Cc1cccc(N2CCN(c3ccc(C(=O)O)cc3NC(=O)c3cccc(Cl)c3)CC2C)c1 (centres undefined) -12%
CCCN(C(=O)Cn1ncc2c1-c1ccccc1OC2)c1cccc(C)c1 -28.4%
Cc1ccc(-n2c(=O)c3ccc(C(=O)NCc4ccco4)cc3n(CC(=O)Nc3ccccc3C(F)(F)F)c2=O)cc1 -3.59%
Cc1cc(C)cc(-n2c(C)cc(C(=O)C(=O)Nc3nnc(C)s3)c2C)c1 -11.1%
CN(C(=O)Cn1cnc2onc(-c3ccc(F)cc3)c2c1=O)c1ccccc1Cl -27.7%
O=C(Cn1c(=O)oc2cc(S(=O)(=O)N3CCCCCC3)ccc21)Nc1ccc(F)cc1F -19.1%
O=C(Nc1cc2c(cc1C(=O)c1cccc(Br)c1)OCCO2)c1ccccc1F -2.92%
CCOC(=O)c1cc2c(=O)n3ccccc3nc2n(Cc2ccco2)c1=NC(=O)c1ccc(C)c(C)c1 -11.6%
CN(c1ccccc1)S(=O)(=O)c1nnc(NC(=O)COc2ccccc2)s1 -9.53%
O=C(NC1(C(F)(F)F)C(=O)Nc2c1c(=O)[nH]c(=O)n2-c1ccccc1)c1ccccc1 (centres undefined) -20.5%
CCCN(CCC)C(=O)Cn1c(SCc2cccc(C(F)(F)F)c2)nc2cccnc21 -9.84%
CCOc1ccc(C(=O)NCc2nc3cccnc3n2Cc2cccc(OC)c2)cc1 -3.44%
CCCN(CCC)C(=O)C(CCC(=O)OCCCN1CCN(CCOC(=O)Cc2c(C)n(C(=O)c3ccc(Cl)cc3)c3ccc(OC)cc23)CC1)NC(=O)c1ccccc1 (centres undefined) -15.1%
CCOc1ccccc1CNC(=O)c1ccc(NC(=O)N2CC(C)Sc3ccccc32)cc1 (centres undefined) -11%
COc1ccc(OC)c(CNC(=O)CN(c2ccc(C)cc2)S(=O)(=O)N(C)C)c1 -0.694%
Cc1cccc(NC(=O)N2CCN(C)c3ncccc32)c1C -5.87%
N#Cc1ccccc1NC(=O)C(=O)NCCc1csc2nc(-c3cccc(F)c3)nn12 2.67%
C=CCCCCCCCCC(=O)O -10.7%
CCOc1cccc(CC(=O)NCc2ccc3c(c2)CCN3C(C)=O)c1OCC -11.3%
Cc1ccc2[nH]cc(C(c3ccccc3)c3ccc(C)s3)c2c1 (centres undefined) -13.3%
CCC(C)NC(=O)CCc1c(C)nc2c(c(C)nn2-c2ccc(C)cc2)c1C (centres undefined) -7.69%
COCC(C)NC(=O)c1cc2c(=O)n3cccc(C)c3nc2s1 (centres undefined) -11.1%
CCOC(=O)c1ccc(-c2ccc(/C=C(\C#N)c3nc4ccc(C)cc4[nH]3)o2)cc1 -17.8%
COc1ccc(-c2onc(C)c2C)cc1S(=O)(=O)NCc1ccc(C)o1 -1.44%
